Experimental data as given in publication PMC4336329 (PLoS ONE, 2015).
Screen size: about 310,000 compounds; about 2,200 (0.71%) showed an effect of 50% or more. Effects have a minus sign here. The list shows a part of the results.

The compounds below were run against human ether-à-go-go-related gene (hERG) potassium channel (human, UniProt Q12809) (assay: primary screen, population patch clamp on CHO cells stably expressing hERG).
Chain of human ether-à-go-go-related gene (hERG) potassium channel (Q12809 whole entry, looked up): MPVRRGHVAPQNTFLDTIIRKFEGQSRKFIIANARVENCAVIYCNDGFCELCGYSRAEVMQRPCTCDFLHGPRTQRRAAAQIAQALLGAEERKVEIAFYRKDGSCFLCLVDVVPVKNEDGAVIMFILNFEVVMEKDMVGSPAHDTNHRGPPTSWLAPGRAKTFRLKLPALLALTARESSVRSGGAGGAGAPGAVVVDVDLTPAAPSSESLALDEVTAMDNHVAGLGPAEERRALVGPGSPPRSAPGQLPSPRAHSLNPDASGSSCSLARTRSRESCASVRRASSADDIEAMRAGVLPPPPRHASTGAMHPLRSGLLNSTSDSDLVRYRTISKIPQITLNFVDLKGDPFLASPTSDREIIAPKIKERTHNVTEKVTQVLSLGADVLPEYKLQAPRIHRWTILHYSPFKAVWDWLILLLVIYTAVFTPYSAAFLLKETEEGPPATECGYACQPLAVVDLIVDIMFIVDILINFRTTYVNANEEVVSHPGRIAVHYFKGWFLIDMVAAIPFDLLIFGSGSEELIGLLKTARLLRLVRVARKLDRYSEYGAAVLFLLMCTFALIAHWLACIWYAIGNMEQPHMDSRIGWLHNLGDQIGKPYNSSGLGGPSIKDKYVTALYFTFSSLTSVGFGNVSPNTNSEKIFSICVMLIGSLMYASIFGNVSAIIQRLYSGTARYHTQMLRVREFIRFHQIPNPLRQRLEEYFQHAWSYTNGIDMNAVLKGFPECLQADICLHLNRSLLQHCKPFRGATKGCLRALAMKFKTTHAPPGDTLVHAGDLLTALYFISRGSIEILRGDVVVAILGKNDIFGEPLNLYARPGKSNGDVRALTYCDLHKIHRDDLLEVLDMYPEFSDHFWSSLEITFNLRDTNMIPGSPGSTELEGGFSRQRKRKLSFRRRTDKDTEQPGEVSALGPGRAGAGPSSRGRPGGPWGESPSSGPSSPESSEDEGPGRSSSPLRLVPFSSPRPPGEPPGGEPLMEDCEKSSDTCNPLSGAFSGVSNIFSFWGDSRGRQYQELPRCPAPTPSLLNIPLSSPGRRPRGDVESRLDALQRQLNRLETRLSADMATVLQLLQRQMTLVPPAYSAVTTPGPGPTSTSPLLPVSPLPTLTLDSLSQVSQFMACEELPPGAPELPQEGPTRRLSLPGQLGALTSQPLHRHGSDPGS

Row | SMILES | hERG current change (%, negative = inhibition) at 1uM [%]
1 | Cc1ccoc1C(=O)NCCNc1ccc(Cl)cc1[N+](=O)[O-] | -2.58
2 | CC(=O)Oc1c(Cl)cc(N(C(C)=O)S(=O)(=O)c2ccccc2)c2ccccc12 | 11.4
3 | CC(C)NC(=S)N/N=C/c1ccc(C(C)(C)C)cc1 | 11.3
4 | Cc1cccc(C)c1NC(=O)c1cc(S(=O)(=O)N2CCOCC2)cn1C | 13.6
5 | CCOCCOC(=O)Cn1cnc2scc(-c3ccc(C)cc3)c2c1=O | 11.8
6 | Cc1cc(-c2sccc2C)nc(-n2cccc2)n1 | 2.44
7 | O=C(Nc1ccccc1F)Nc1ccccc1F | -4.38
8 | COCCNC(=S)NC1CC2CCCC(C1)N2Cc1cccs1 (stereo not shown) | -1.25
9 | CC(C1CC1)N(Cc1ccccc1)C(=S)Nc1ccccc1 (stereo not shown) | 2.49
10 | COc1ccc(-c2nn(C)c(=O)c3ccccc23)cc1NC(=O)COc1ccccc1 | 7.34
11 | O=[N+]([O-])c1cc(C(F)(F)F)ccc1N1CCCC(O)C1 (stereo not shown) | 10.7
12 | Cc1cc(NC(=O)C2CC(=O)OC2c2ccccc2)no1 (stereo not shown) | 8.27
13 | CN(C)CCNS(=O)(=O)c1ccc(N2CCc3ccccc32)c([N+](=O)[O-])c1 | -1.12
14 | Cc1cc(C)n(-c2ccc(C(=O)Nc3ccc4c(c3)OCO4)cc2)n1 | 9.94
15 | CCCC(=O)Nc1ccc(C(=O)NNC(=O)c2ccccc2Br)cc1 | 16.6
16 | CCOC(=O)C1=C(C)N=c2s/c(=C\c3cc(OC)c(OC)c(OC)c3)c(=O)n2C1/C=C/c1ccccc1 (stereo not shown) | 3.85
17 | COc1ccc(C(=O)c2ccc(OC)c(OC)c2)cc1OC | 15.4
18 | CCOC(=O)c1cnc2ccc(Br)cc2c1NCCO | 8.05
19 | Cn1cc(-c2cccc(C(F)(F)F)c2)cc(C#N)c1=O | 7.37
20 | Cc1ccsc1C(=O)NNC(=O)C1CCCCC1C(=O)O (stereo not shown) | 7.14
21 | CCOC(=O)c1sc(=NC(=O)CCS(=O)(=O)c2ccccc2)n(C)c1C | 11.7
22 | O=C(NC(C(=O)N/N=C/c1cccc2ccccc12)c1n[nH]c(=O)c2ccccc12)c1ccccc1 (stereo not shown) | 13.7

Row | SMILES | hERG current change (%, negative = inhibition) at 1uM [%]
23 | CCN(Cc1ccncc1)Cc1nc(Cc2ccccc2Cl)no1 | 2.33
24 | CC(=O)c1cccc(OCC(O)CNCC2CCCCC2)c1 (stereo not shown) | 11.8
25 | COc1cc2nc(CN(C)Cc3ccc(OC)c(OC)c3OC)[nH]c(=O)c2cc1OC | 17.7
26 | Clc1ccc(Nc2cc(-c3ccccc3)nc3ncnn23)cc1 | 20.3
27 | CCCCCn1c2c(c(=N)c3ccccc31)CCC2.I | -61.5
28 | CCCCCCCCCCC(=O)Nc1cccnc1 | 15.8
29 | COc1ccc(OCC(=O)Nc2ccc3oc(=O)ccc3c2)cc1 | 4.64
30 | COc1ccccc1C(=O)N/N=C/c1cnc2ccccc2n1 | 6.27
31 | CC(=O)c1c(C(C)=O)c(C)n(-c2ccc(N)c(C)c2)c1C | 13
32 | CS(=O)(=O)c1ccccc1COC(=O)Nc1ccc(Cl)cc1 | 11.2
33 | Cc1ccccc1NC(=O)C(Cc1ccccc1)n1cccc1 (stereo not shown) | 13
34 | O=C(NC(=S)NCC1CCCO1)c1ccccc1Br (stereo not shown) | 6.78
35 | Cc1ccc(C(=O)c2c(NC(=O)c3ccccc3)sc(C)c2C)cc1 | 22.3
36 | OCCOc1nnnn1-c1ccccc1 | 12.6
37 | O=C(NC1CCCCC1)c1cc(Cl)nc2ccccc12 | 16.5
38 | O=C(Nc1ccccc1)NC1(C(=O)N2CCN(c3ncccn3)CC2)CCCCC1 | 22.4
39 | Oc1c(Br)c(Br)c(Br)c(Br)c1Br | 15.9
40 | COC(=O)CN1C(=O)CN=C(c2ccccc2Cl)c2cc(Br)ccc21 | 6.47
41 | COc1ccc(-c2ccc(SCC(=O)NC3CCCC3)nn2)cc1OC | 7.65
42 | Cc1nc(N2CCC(C)CC2)c2c(C)c(C(=O)Nc3ccccc3C(F)(F)F)sc2n1 | -15.5
43 | CCOc1ccc(Nc2oc(Cc3ccccc3)nc2C#N)cc1 | 1.03
44 | O=C(c1ccco1)N1CCN(c2ccc([N+](=O)[O-])cc2Cl)CC1 | -20.1

Row | SMILES | hERG current change (%, negative = inhibition) at 1uM [%]
45 | O=C(/C=C/c1ccc(-c2ccccc2[N+](=O)[O-])o1)c1ccc(F)cc1 | 2.67
46 | Cc1ccc(S(=O)(=O)N2CCCC(C(=O)NCCc3ccccc3)C2)cc1 (stereo not shown) | 16.1
47 | COc1ccc(-n2c(-c3ccc(Br)cc3)nc(=S)c3c2CCCC3)cc1 | 2.59
48 | O=C(/C=C/c1ccccc1)n1cnnc1SC/C=C/c1ccccc1 | 2.68
49 | Cn1c2ccccc2c(=O)c2c(=O)n(Cc3ccccc3)c(-c3ccc(F)cc3)nc21 | 12.5
50 | CCn1c(C)nc2cc(C(=O)NNC(=O)CCC3CCCCC3)ccc21 | 3.07
51 | COc1cccc(C(C(=O)NC2CCCCC2)N(CCN2CCOCC2)C(=O)C2COc3ccccc3O2)c1 (stereo not shown) | -3.46
52 | CCOc1ccc(Nc2cc(C)nc3ccc(C)cc23)cc1 | -35.1
53 | COc1cccc(C2=NOC(C(=O)Nc3cccnc3Cl)C2)c1 (stereo not shown) | 16.2
54 | Cn1c2ccccc2c(=O)c2ccc(C#CC3(O)CCCCC3)cc21 | 8.26
55 | Cc1cccc(N2CC(C(=O)Nc3nnc(SCC(=O)NCC4CCCO4)s3)CC2=O)c1 (stereo not shown) | 11.9
56 | CCCCCC(=O)Nc1ccc(C(=O)COC(=O)CN2C(=O)NC3(CCCC3)C2=O)cc1 | 11.1
57 | Cc1cccc(CS(=O)(=O)Cc2ccc(C(=O)NC3CCCCC3)o2)c1 | -0.202
58 | Cc1cc(C)nc(NC2=NCC(=O)N2c2cccc(Cl)c2)n1 | 2.51
59 | CCc1ccc(NC(=O)CN2C(=O)COc3ccc(S(=O)(=O)N4CCCC4)cc32)cc1 | 7.78
60 | CC1(C)C(c2cccs2)=[N+]([O-])C2(CCCCC2=O)N1O (stereo not shown) | 14.9
61 | CCc1ccc(NC(=O)CC2C(=O)N(c3cccc(C)c3)C(=O)N2C2CC2)cc1 (stereo not shown) | 6.26
62 | CCCCn1c(SCC(=O)NC2CCS(=O)(=O)C2)nc2ccccc2c1=O (stereo not shown) | -7.01
63 | FC(F)Sc1nc2ccccc2[nH]1 | 11.7
64 | Cn1c(SCC(=O)Nc2ccc3cn[nH]c3c2)nnc1-c1cnccn1 | -6.51
65 | Cc1ccc2cc(CN(Cc3ccccc3)Cc3nnnn3C3CCCC3)c(=O)[nH]c2c1 | -5.33
66 | O=C(O)c1cccc(Cn2c(Cl)c(/C=N/NC(=O)c3ccccc3Cl)sc2=O)c1 | 16.7

Row | SMILES | hERG current change (%, negative = inhibition) at 1uM [%]
67 | O=C(CSc1ccc(C(F)(F)F)cc1[N+](=O)[O-])Nc1ccccc1 | 1.41
68 | CCOC(=O)c1c(C)n(CC(O)CN(CC)CC)c2cc(Br)c(OC)cc12.Cl (stereo not shown) | 4.3
69 | COc1ccc(Nc2nc(NCCCN3CCOCC3)nc(N)c2[N+](=O)[O-])cc1 | 3.71
70 | CC(C)C[C@@H](COc1ccccc1)N1CCN(Cc2ccccc2)CCC1=O | -4.6
71 | COc1ccc(N(Cc2ccc(N(C)C)cc2)C(=O)c2ccc(S(C)(=O)=O)cc2)cc1 | 13.1
72 | COc1ccc(C(=O)/C=C/Nc2ccc(NC(C)=O)cc2)cc1OC | -0.271
73 | NNC(=O)CP(=O)(c1ccccc1)c1ccccc1 | 16.8
74 | O=C(CONS(=O)(=O)c1ccc(Cl)cc1)NCCNc1ncc(C(F)(F)F)cc1Cl | 8.69
75 | O=c1c2c3c(sc2nc2sc(CN4CCCCC4)cn12)CCCC3 | 11
76 | COc1ccccc1C(=O)NC(=O)COC(=O)Cn1cnc2c1c(=O)n(C)c(=O)n2C | 3.4
77 | O=C(NCc1ccccn1)C1CC(c2ccc(F)cc2)=NO1 (stereo not shown) | 12.6
78 | Cc1ccc(Nc2nc(N)c([N+](=O)[O-])c(NCc3ccco3)n2)cc1 | 3.04
79 | O=C(CSc1nc(=O)n2ccccc2n1)N1CCN(c2ccccc2)CC1 | 6.22
80 | Cc1cc([N+](=O)[O-])nn1CC(=O)Nc1cnc2ccccc2c1 | -15.8
81 | Cc1ccc(C)c(N2CCN(C(=O)Cn3c(=O)oc4cc(S(=O)(=O)N5CCCC5)ccc43)CC2)c1 | 7.82
82 | CN(Cc1ccccc1)C(=O)COC(=O)CCNC(=O)c1ccccc1Cl | 1.43
83 | Cc1cc(C)cc(C(=O)NCC(=O)OCC(=O)Nc2ccc(C)cc2Br)c1 | 12.2
84 | CC1C(=O)Nc2ccc(S(=O)(=O)N3CCN(c4cccc(Cl)c4)CC3)cc2NC1=O (stereo not shown) | 2.25
85 | CCCN(CCC)CC(O)CN(c1ccccc1)S(=O)(=O)c1ccc(C)cc1 (stereo not shown) | -88.6
86 | CC(=O)Nc1ccc(S(=O)(=O)NNC(=O)COc2ccc(C)cc2)cc1 | 3.63
87 | O=C(Nc1ccc2nc(-c3ccccc3)[nH]c2c1)c1ccco1 | -9.37
88 | Cc1ccc2[nH]c(=O)c(CN(Cc3cccnc3)Cc3nnnn3CCN3CCOCC3)cc2c1 | 2.03
